The other results are listed elsewhere or left out.

The assay deals with T1, MBP-FoxP1dN (Mus musculus, UniProt P58462 326-579).
T1 sequence: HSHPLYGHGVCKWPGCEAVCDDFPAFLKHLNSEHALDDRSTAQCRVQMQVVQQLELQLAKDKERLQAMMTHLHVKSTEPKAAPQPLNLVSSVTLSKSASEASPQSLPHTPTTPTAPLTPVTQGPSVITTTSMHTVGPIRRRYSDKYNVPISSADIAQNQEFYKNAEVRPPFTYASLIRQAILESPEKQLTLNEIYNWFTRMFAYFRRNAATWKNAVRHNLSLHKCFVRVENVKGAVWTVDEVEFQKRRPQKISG
The experiment in a line: PD-seq (MBP pull-down with sequencing); 20 mM Tris-HCl pH 7.5, 100 mM NaCl, 1.5 mM MgCl2, 0.4 uM protein, 0.1 uM dsDNA library, 30 min, room temperature, amylose pull-down; high values mean tight binding. The settings on record: protein: recombinant; tags: His6-MBP; chain copies: 2; dsDNA, one strand shown. A digest of the protocol: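 In Tris pH 7.5 buffer with NaCl and MgCl2, 0.4 µM His6-MBP-tagged mouse FoxP3 or FoxP1 fragment lacking the N-terminus, from E. coli, met 0.1 µM Klenow-filled double-stranded degenerate DNA library for 30 min at room temperature. Three washes on amylose resin followed capture of the complexes, then proteinase K release of DNA, PCR barcoding and Illumina sequencing. Binding is taken as pooled-replicate reads-per-million enrichment of pull-down relative to input.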
With “GATGATTGTTCTCCCAGCTGATGAATTGCAGTTGTCGAGTAAACAAATTTTCCTAATCTTTCTGTTCAAGCGCCATCTAC”, the binding signal was 1.34 RPM ratio (pull-down/input). For “GATGATTGTTCTCCCAGCTGATGAATTTGAAGGCTCGAGTAAACAAATTTTCCTAATCTTTCTGTTCAAGCGCCATCTAC”, the binding signal is 0.783 RPM ratio (pull-down/input). The value for “GATGATTGTTCTCCCAGCTGATGAATTGAATAATTCGAGTAAACAAATTTTCCTAATCTTTCTGTTCAAGCGCCATCTAC” was 0.946 RPM ratio (pull-down/input); that for “GATGATTGTTCTCCCAGCTGATGAATTCTAAACTTCGAGTAAACAAATTTTCCTAATCTTTCTGTTCAAGCGCCATCTAC” was 0.947 RPM ratio (pull-down/input); that for “GATGATTGTTCTCCCAGCTGATGAATTGCAGCCGTCGAGTAAACAAATTTTCCTAATCTTTCTGTTCAAGCGCCATCTAC” was 1.06 RPM ratio (pull-down/input). Consider “GATGATTGTTCTCCCAGCTGATGAATTCTCGTGGTCGAGTAAACAAATTTTCCTAATCTTTCTGTTCAAGCGCCATCTAC”, for which the binding signal was 0.784 RPM ratio (pull-down/input). In the case of “GATGATTGTTCTCCCAGCTGATGAATTGAACAGATCGAGTAAACAAATTTTCCTAATCTTTCTGTTCAAGCGCCATCTAC”, the binding signal was 0.883 RPM ratio (pull-down/input).

Take “GATGATTGTTCTCCCAGCTGATGAATTGGCTCGATCGAGTAAACAAATTTTCCTAATCTTTCTGTTCAAGCGCCATCTAC”: the binding signal was 0.816 RPM ratio (pull-down/input).

On to “GATGATTGTTCTCCCAGCTGATGAATTGGCATTGTCGAGTAAACAAATTTTCCTAATCTTTCTGTTCAAGCGCCATCTAC”, for which the binding signal is 1.03 RPM ratio (pull-down/input). For “GATGATTGTTCTCCCAGCTGATGAATTGACCGTCTCGAGTAAACAAATTTTCCTAATCTTTCTGTTCAAGCGCCATCTAC” the value was 0.883 RPM ratio (pull-down/input); for “GATGATTGTTCTCCCAGCTGATGAATTCGAATCATCGAGTAAACAAATTTTCCTAATCTTTCTGTTCAAGCGCCATCTAC”, 0.948 RPM ratio (pull-down/input); for “GATGATTGTTCTCCCAGCTGATGAATTCTCGCTCTCGAGTAAACAAATTTTCCTAATCTTTCTGTTCAAGCGCCATCTAC”, 0.867 RPM ratio (pull-down/input). For “GATGATTGTTCTCCCAGCTGATGAATTCGAGCGGTCGAGTAAACAAATTTTCCTAATCTTTCTGTTCAAGCGCCATCTAC” the value was 0.717 RPM ratio (pull-down/input); for “GATGATTGTTCTCCCAGCTGATGAATTAATGCGTTCGAGTAAACAAATTTTCCTAATCTTTCTGTTCAAGCGCCATCTAC”, 1.28 RPM ratio (pull-down/input); for “GATGATTGTTCTCCCAGCTGATGAATTATGTGGCTCGAGTAAACAAATTTTCCTAATCTTTCTGTTCAAGCGCCATCTAC”, 1.08 RPM ratio (pull-down/input). For “GATGATTGTTCTCCCAGCTGATGAATTGCAAACATCGAGTAAACAAATTTTCCTAATCTTTCTGTTCAAGCGCCATCTAC” the value was 2.29 RPM ratio (pull-down/input). As for “GATGATTGTTCTCCCAGCTGATGAATTGATCAAGTCGAGTAAACAAATTTTCCTAATCTTTCTGTTCAAGCGCCATCTAC”, the binding signal is 0.948 RPM ratio (pull-down/input). The value for “GATGATTGTTCTCCCAGCTGATGAATTTTTAGGATCGAGTAAACAAATTTTCCTAATCTTTCTGTTCAAGCGCCATCTAC” was 0.839 RPM ratio (pull-down/input); that for “GATGATTGTTCTCCCAGCTGATGAATTCCGCTCGTCGAGTAAACAAATTTTCCTAATCTTTCTGTTCAAGCGCCATCTAC” was 0.791 RPM ratio (pull-down/input); that for “GATGATTGTTCTCCCAGCTGATGAATTTCCCACGTCGAGTAAACAAATTTTCCTAATCTTTCTGTTCAAGCGCCATCTAC” was 0.92 RPM ratio (pull-down/input).

“GATGATTGTTCTCCCAGCTGATGAATTTTTTGTGTCGAGTAAACAAATTTTCCTAATCTTTCTGTTCAAGCGCCATCTAC”: the binding signal was 1.12 RPM ratio (pull-down/input). As for “GATGATTGTTCTCCCAGCTGATGAATTAGGCACGTCGAGTAAACAAATTTTCCTAATCTTTCTGTTCAAGCGCCATCTAC”, the binding signal is 0.943 RPM ratio (pull-down/input).

With “GATGATTGTTCTCCCAGCTGATGAATTTTGAGCGTCGAGTAAACAAATTTTCCTAATCTTTCTGTTCAAGCGCCATCTAC”, the binding signal is 0.967 RPM ratio (pull-down/input).

For “GATGATTGTTCTCCCAGCTGATGAATTGGCGATATCGAGTAAACAAATTTTCCTAATCTTTCTGTTCAAGCGCCATCTAC”, the binding signal was 0.926 RPM ratio (pull-down/input).

“GATGATTGTTCTCCCAGCTGATGAATTTTAGGAGTCGAGTAAACAAATTTTCCTAATCTTTCTGTTCAAGCGCCATCTAC”: the binding signal is 0.815 RPM ratio (pull-down/input). As to “GATGATTGTTCTCCCAGCTGATGAATTATGGGGATCGAGTAAACAAATTTTCCTAATCTTTCTGTTCAAGCGCCATCTAC”, the binding signal is 0.922 RPM ratio (pull-down/input). For “GATGATTGTTCTCCCAGCTGATGAATTACGTTAATCGAGTAAACAAATTTTCCTAATCTTTCTGTTCAAGCGCCATCTAC”, the binding signal was 1.2 RPM ratio (pull-down/input). The value for “GATGATTGTTCTCCCAGCTGATGAATTTCATCCCTCGAGTAAACAAATTTTCCTAATCTTTCTGTTCAAGCGCCATCTAC” was 0.818 RPM ratio (pull-down/input); that for “GATGATTGTTCTCCCAGCTGATGAATTACGACCCTCGAGTAAACAAATTTTCCTAATCTTTCTGTTCAAGCGCCATCTAC” was 0.931 RPM ratio (pull-down/input); that for “GATGATTGTTCTCCCAGCTGATGAATTCGGGGCATCGAGTAAACAAATTTTCCTAATCTTTCTGTTCAAGCGCCATCTAC” was 0.909 RPM ratio (pull-down/input). The value for “GATGATTGTTCTCCCAGCTGATGAATTCGAAAGTTCGAGTAAACAAATTTTCCTAATCTTTCTGTTCAAGCGCCATCTAC” was 0.839 RPM ratio (pull-down/input).
